Laboratory results reported in the supplement of paper PMC11417369.
± gives the standard deviation of the averaged measurements. This is one part of the list.

system: PfAP2-I AP2 domain 3 (GST-tagged); test: gcPBM binding intensity (ln(normalized median fluorescence intensity)); higher = stronger DNA binding
Method in brief: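 DNA-binding domains from P. falciparum, fused to GST and produced in E. coli, were put on an Agilent 4 × 180k double-stranded probe array for 1 h in 1× PBS holding 1% milk, 0.2 mg/ml BSA, 0.5% salmon testes DNA and 0.03% Triton X-100. Probes were primer-extended, 36 bp long and drawn from intergenic genomic regions, with negative controls included. After Alexa488 anti-GST antibody detection and a 488 nm scan, binding intensity was set as the highest Masliner-normalised natural-log median intensity across replicate spots of either probe orientation.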

Sequence	gcPBM binding intensity (ln)
TATTTTTATTTATATACACACTTACATATTTATATT [CACACA_site7666]	7.95 ± 0.59
AGAATTTATAAAAACTGTACATATTTTCCAGTTATA [XGTACX_site2848]	7.58 ± 0.4
TAATGTACTTAAACCGCACACATATAAAAAAATAAA [CACACA_site8926]	8.46 ± 0.014
TTATTTTAATTTTTGGTGCATATTCAAGTGTACCTT [GTGCAC_site9791]	10.4 ± 0.47
TATTTACATATTTATATACACACTTTTGCGTGTCTG [CACACA_site1110]	7.78 ± 0.42
ATAAATAATATAAATACACACTAAAAAAGATATATA [CACACA_site6397]	7.54 ± 0.5
AAATAAAATACAATATGATAAAATGTTATCATATAT [CACACA_negctrl_site538]	7.32 ± 0.45
AATAAAAGGAATAATTGTACATAATGATTATACGTT [XGTACX_site7548]	7.59 ± 0.68
TATTTTTTATAATAATGTACATATATATATATAATA [XGTACX_site2329]	7.84 ± 0.19
AATATCATATAAAAATGTACAAATTCTAAAACACGA [XGTACX_site1442]	7.97 ± 0.56
ATGTATGTGTAACATAGTACTTTTTAAAAGGATATT [XGTACX_site5328]	7.96 ± 0.61
TATAGATACATATACACACACACACCCACATATATA [CACACA_site3436]	8.09 ± 0.042
ATCAAACCTTTTAAATGTACATTCGGAGTAAAAAAA [XGTACX_site282]	7.83 ± 0.74
GTATTCATGCTAAAGGTGCAATAATTTTTATAATAA [GTGCAC_site9603]	11.5 ± 0.61
AAGATAAAATTATGTAGTACAAAAAAAAATAAAAAA [XGTACX_site139]	7.96 ± 0.54
CGCCTATAAGCTTAGACACACAAATAAATAAATATA [CACACA_site1264]	7.45 ± 0.35
TTAAAAATGTTGGAAAGTACATATTTTTTAAAAGTA [XGTACX_site802]	7.66 ± 0.46
TACCTAATTCGGTCCCGTACAAGTTAGTTTCAATTC [XGTACX_site2703]	7.32 ± 0.62
TATTGGGGGTATAAACACAGTAAGTAAATAAATAAA [CACACA_negctrl_site1680]	9.01 ± 0.12
AAAAAAAAAAAAAAGAGTACACAGACGTTCAAAGGT [XGTACX_site7566]	8.47 ± 0.31
TGTATGTATTAATGCGCACACAAAAAATAACAATAT [CACACA_site1848]	9.29 ± 0.19
ATATATATATATAAATGTACATTGTGTGTTGTAAGA [XGTACX_site2434]	9.29 ± 0.47

Sequence	gcPBM binding intensity (ln)
ATAAAAAAAAAATAATGTACTTATATATATATATAT [XGTACX_site8282]	9.45 ± 0.29
ATATAGATATATAGTAGTACTTGTTATATAAGATAA [XGTACX_site6336]	7.67 ± 0.47
ACAGAGCTTTAAATACGTACATAATATATATTAAAT [XGTACX_site8221]	7.76 ± 0.46
TATTGATTTAGAAACACACACTCGAAGATGTTTAAC [CACACA_site1129]	7.58 ± 0.53
TTTAAAAAATGTTATATTATATAATTAAAAAAAAAA [CACACA_negctrl_site1509]	7.43 ± 0.79
GTATATTATTTACGTTTGCACTTCATTTTATAGTAA	9.18 ± 0.35
TATTAATTGTGGCACCTTGTATGTTTACAATGACAT [CACACA_negctrl_site1383]	10.34 ± 0.078
TTCTTCAAAAAAAATTGTACACATCTCTCAAATGTT [XGTACX_site2952]	7.67 ± 0.53
AATGGATGAATGAATGTATGAATGAATGTATGAATG [CACACA_negctrl_site91]	7.88 ± 0.84
ATATATATAAAACACACACACAAAAAAAATAAAGAC [CACACA_site117]	8.6 ± 0.57
TTTTGTAGTTTATAAATAAAAGAGAATATGGTGCTT [CACACA_negctrl_site413]	7.93 ± 0.57
TAAATATTATTTCATAGTACTTTTATTATTGATATA [XGTACX_site5566]	7.76 ± 0.14
TAAATAAATATATATACACACATATATATATATATA [CACACA_site598]	9.23 ± 0.48
CAATTTATAAAGAAAACACACATATACATATATACA [CACACA_site1260]	7.6 ± 0.4
TATTAAACAAATTATGCAAAAATAAATCAATATGTT [CACACA_negctrl_site171]	8.12 ± 0.64
TTAGGAAGCTCACAAAATAAAGTGAAAAGAAGAAAA [XGTACX_negctrl_site572]	7.62 ± 0.87
ATTATTTTATAATTCACACATAAATAAAAAAAAAAT [CACACA_site5290]	7.76 ± 0.32
TGATTTCCAGGTTATTGTACAAAATTAATTTTCGAA [XGTACX_site2491]	7.86 ± 0.59
AAAAGTTTTATTTAAATGAATTAATCTTTACTATAT [CACACA_negctrl_site282]	7.23 ± 0.54
TATTTTCATTTGCGCGCACACAATAATAATTTTTGG [CACACA_site3525]	8.59 ± 0.45
TAAAAAATATAAATGACACACACTTAAAAACAAAGA [CACACA_site671]	7.86 ± 0.72
TATAAATTAATGACATGTACATAAAAGTATAGATGT [XGTACX_site6534]	7.96 ± 0.45
